Data reported in PubChem BioAssay (Tox21).
This list was built around the results that the source calls inconclusive (neither active nor inactive); the mix of calls is not that of the screen. Entries that show only a call come without a potency. Where the call is inconclusive, the potency comes from a doubtful curve fit. Where a structure was tested more than once in an assay, its records may differ in their call. Active and inactive are the calls of the source. Unless noted, the call rests on the fitted dose curve; in most records, active means well fitted cell-killing curve with a large enough effect in the repeat runs; inconclusive means weak or mixed curves; inactive means no such curve, though single readings can be large or run the other way.

Test system: not listed separately
Test: qHTS assay for identifying genotoxic compounds that show differential cytotoxicity against isogenic chicken DT40 cell lines with known DNA damage response pathways - Rad54/Ku70 mutant cell line (AID 743015); further: nearly all actives have a fitted effect of over 60% in size
Conditions: DT40 Rad54/Ku70 mutant viability, CellTiter-Glo, 40 h; activity change, negative = cytotoxicity: at 66.8 µM (top of the series)
Potency means the concentration at half of the fitted maximal effect; tags describe the fitted curve by direction and shape.

SMILES | Potency
CN(C)CCCN | inactive
O=C(O)CC(C(=O)O)C(CC(=O)O)C(=O)O (stereo unspecified) | inactive
CC(C)(CO)[N+](=O)[O-] | inactive
O=C1OC(CN2CCOCC2)CN1/N=C/c1ccc([N+](=O)[O-])o1 (stereo unspecified) | inconclusive: 14.3 µM [cytotoxic, single point]

Test system: not listed separately
Test: qHTS assay to identify small molecule antagonists of the androgen receptor (AR) signaling pathway - cell viability counter screen (AID 743033; further: nearly all actives have a fitted effect of over 45% in size)
Conditions: AR-bla HEK293 viability, CellTiter-Glo luminescence, 16 h; activity change, negative = cytotoxicity: at 58.5 µM (top of the series) unless noted

SMILES | Potency
COCCCCCCCCOCCC[Si](C)(O[Si](C)(C)C)O[Si](C)(C)C | active: 6.92 µM
C=CC(=O)OCC[N+](C)(C)C | inactive
Cc1cc(C)c(C)c(C)c1 | inactive
O=C(O)c1c2ccccc2cc2ccccc12 | inactive
OCCOCCN1CCN(C2=Nc3ccccc3Sc3ccccc32)CC1 | active: 26.8 µM
CC(C)C(=O)O | inactive
Cc1c(Nc2ncccc2C(=O)O)cccc1C(F)(F)F | inactive
CN(C)CCCN1c2ccccc2Sc2ccccc21 | inconclusive: 0.0013 µM [cytotoxic, full curve, poor fit]
CC(C)COC(=O)/C=C/c1ccccc1 | inactive

Biological target: Androgen receptor (Homo sapiens) (UniProt P10275)
Test: qHTS assay to identify small molecule antagonists of the androgen receptor (AR) signaling pathway (AID 743035; active means well fitted inhibition curve with a large enough effect in the signal ratio in the repeat runs, not every such curve was filed as active; inconclusive means weak or mixed curves, or effect the other way; inactive means no such curve, though single readings can be large or run the other way; the % refers to the signal ratio)
Conditions: HEK293 AR-UAS-bla, R1881-stimulated, beta-lactamase FRET, 16 h; series mostly up to 58.5 µM
Procedure, shortened: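 Cell line: GeneBLAzer AR-UAS-bla GripTite (HEK293). Stimulus: R1881 added after compound. Exposure: 16 h, 37C, 5% CO2. Readout: LiveBLAzer B/G FRET fluorescence after 2 h at room temperature.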

UniProt P10275, sequence (P10275 whole entry, looked up): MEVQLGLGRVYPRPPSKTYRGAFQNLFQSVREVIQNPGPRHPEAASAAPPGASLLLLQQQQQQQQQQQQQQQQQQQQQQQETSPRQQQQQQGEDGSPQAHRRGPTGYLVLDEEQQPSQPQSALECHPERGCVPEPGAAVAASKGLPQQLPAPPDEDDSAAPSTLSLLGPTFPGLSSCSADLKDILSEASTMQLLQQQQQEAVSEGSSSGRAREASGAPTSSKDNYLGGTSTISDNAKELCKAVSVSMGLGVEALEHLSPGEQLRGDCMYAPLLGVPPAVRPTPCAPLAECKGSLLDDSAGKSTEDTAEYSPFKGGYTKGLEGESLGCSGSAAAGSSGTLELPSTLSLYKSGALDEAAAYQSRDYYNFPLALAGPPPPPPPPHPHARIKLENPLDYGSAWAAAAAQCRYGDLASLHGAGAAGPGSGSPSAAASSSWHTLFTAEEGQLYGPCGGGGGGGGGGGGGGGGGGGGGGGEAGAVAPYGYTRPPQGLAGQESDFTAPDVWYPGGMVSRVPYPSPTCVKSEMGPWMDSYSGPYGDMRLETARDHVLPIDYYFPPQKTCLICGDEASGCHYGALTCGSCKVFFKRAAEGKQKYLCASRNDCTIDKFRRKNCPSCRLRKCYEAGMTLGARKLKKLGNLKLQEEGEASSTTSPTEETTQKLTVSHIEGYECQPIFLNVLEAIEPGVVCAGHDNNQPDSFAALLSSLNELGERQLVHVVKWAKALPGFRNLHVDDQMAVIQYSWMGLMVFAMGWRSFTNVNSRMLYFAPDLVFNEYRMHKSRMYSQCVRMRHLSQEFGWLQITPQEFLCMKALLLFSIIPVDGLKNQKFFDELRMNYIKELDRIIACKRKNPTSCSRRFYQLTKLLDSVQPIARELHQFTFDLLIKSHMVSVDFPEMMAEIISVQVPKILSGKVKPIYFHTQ

SMILES | Potency
CC(COCCO)OCCO (stereo unspecified) | inactive
CCCn1cnc2c1c(=O)n(CCCCC(C)=O)c(=O)n2C | inactive
CC(=O)OC(C)OC(C)=O | inactive
c1ccc(OCc2ccc(CCCN3CCOCC3)cc2)cc1 | inconclusive: 23.9 µM [falling, partial curve, poor fit]
CN(C)Cc1cc(CN(C)C)c(O)c(CN(C)C)c1 | inactive
CC(C)c1ccc2oc3nc(N)c(C(=O)O)cc3c(=O)c2c1 | inactive
CCN1CCN(c2cc3c(cc2F)c(=O)c(C(=O)O)cn3C2CC2)CC1 | inactive
O=C1OC(CN2CCOCC2)CN1/N=C/c1ccc([N+](=O)[O-])o1 (stereo unspecified) | inactive
